The campaign covered roughly 1,500 compounds. About 100 (6.7%) were called active. Inconclusive results (about 7%) are left out. Calls follow the shape of the dose curve; as a rule, active = well fitted inhibition curve with a large enough effect; inconclusive = small, poorly fitted or top-dose-only effect, or effect the other way; inactive = flat fitted curve, though single readings scatter. Some of the results follow.
These molecules were tested against Runt-related transcription factor 1 (Homo sapiens) + Core-binding factor subunit beta (Homo sapiens) (UniProt Q01196+Q13951) (assay: qHTS Assay for Compounds Blocking the Interaction Between CBF-beta and RUNX1 for the Treatment of Acute Myeloid Leukemia: Hit Validation). Settings: AlphaScreen CBFb-His/RUNX1-biotin binding; series mostly up to 59.8 µM; activity, negative = inhibition: at the top concentration.
Procedure, shortened: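 Compounds were added to a premixed CBF-beta-His/RUNX1-biotin complex (30 nM each, 20 min) for 15 min. Nickel and streptavidin AlphaScreen beads followed for 90 min at room temperature, with emission at 440 nm […].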
% is scaled to controls: 0 for no effect and ±100 for the full control effect; potency is read from the fitted curve at half-maximal effect.
Also: nearly all actives have a fitted effect of over 60% in size.

Sequence of UniProt Q01196 (Q01196 whole entry, looked up): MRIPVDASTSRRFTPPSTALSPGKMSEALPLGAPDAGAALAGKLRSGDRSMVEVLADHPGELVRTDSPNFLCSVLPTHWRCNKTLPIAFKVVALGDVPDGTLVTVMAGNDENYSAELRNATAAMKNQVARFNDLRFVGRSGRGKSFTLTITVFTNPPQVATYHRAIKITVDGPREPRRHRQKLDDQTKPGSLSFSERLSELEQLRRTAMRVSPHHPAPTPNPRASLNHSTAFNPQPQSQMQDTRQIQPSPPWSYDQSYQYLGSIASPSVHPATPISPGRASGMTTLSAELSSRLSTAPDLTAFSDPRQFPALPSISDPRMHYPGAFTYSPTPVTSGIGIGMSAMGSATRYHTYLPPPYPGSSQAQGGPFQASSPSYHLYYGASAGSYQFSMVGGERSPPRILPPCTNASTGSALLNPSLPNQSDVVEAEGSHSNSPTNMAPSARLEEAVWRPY
Sequence of UniProt Q01196 (Q13951 whole entry, looked up): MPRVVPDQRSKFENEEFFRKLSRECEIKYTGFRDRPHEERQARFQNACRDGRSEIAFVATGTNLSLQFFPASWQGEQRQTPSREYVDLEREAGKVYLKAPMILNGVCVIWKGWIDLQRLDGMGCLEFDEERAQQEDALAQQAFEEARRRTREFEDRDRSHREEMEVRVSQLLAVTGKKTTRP

activity, negative = inhibition, inactive:
O=C(/C=C/c1ccccc1)Nc1cccnc1Oc1ccccc1F -4.55%
O=S(=O)(Nc1cccc(CCc2ccccn2)c1)c1cc(Cl)ccc1Cl -7.59%
O=C(Oc1c(-c2ccccc2)c(=O)n2c3c(cccc13)CC2)c1ccccc1 -1.65%
Brc1cc(Br)cc(CN2CCSCC2)c1 0.277%
Cc1cc2c3ccccc3ncn2n1 -1.64%
Cc1nc([N+](=O)[O-])cn1CC(O)c1ccccc1 (centres undefined) 0.256%
c1ccc2c(c1)Nc1ccncc1S2 7.18%
Cc1nnsc1C(=O)N/N=C/c1ccccc1Cl 1.58%
CCOc1ccc(Nc2nc(N)nc(CSC(=S)N3CCOCC3)n2)cc1 -12.1%
Cc1cc(N2CCOCC2)n2ncc(-c3ccc(Cl)cc3)c2n1 -1.58%
CC1=NNC(=O)C1Cc1ccc(F)cc1 (centres undefined) -5.63%
CCOC(=O)C1=C(O)C(=O)N(C2CCCCC2)C1 -4.13%
CCCCCCCC1(C)NC(=O)NC1=O (centres undefined) 2.95%
O=C(CNC(=O)C(c1ccccc1)c1ccccc1)N/N=C\c1cccc(O)c1 -1.65%
Cc1ccc(-n2ncc(-c3nn[nH]n3)c2N)cc1 -2.4%
COc1ccc(/C=C/C(=O)NCCc2nc3ccccc3[nH]2)cc1 3.93%
O=C(CCC(=O)N1CCN(c2ccc(O)cc2)CC1)c1ccc(Br)cc1 -7.61%
COc1ccccc1NC(=O)Nc1sccc1-c1nc2ccccc2s1 -17.1%
COc1ccc(NC(=O)C2=NNC(=O)CC2)cc1S(=O)(=O)N1CCCCC1 -0.84%
Cc1cccc(CC(=O)c2c[nH]c3ccccc23)c1 -8.61%
CC(C)C1N(C(N)=S)N=CC1(C)C (centres undefined) -1.01%
COC(=O)c1ccccc1N=Nc1c(C)n[nH]c1C 2.67%
CC(C)(C)N1CCC1C(N)=O (centres undefined) 12.6%
Cc1cc(OCC(=O)c2cccc(C(F)(F)F)c2)n2cnnc2n1 1.34%
CC(C)(C)c1ccc(C(=O)Nc2ccc(S(N)(=O)=O)cc2)cc1 7.64%
Cc1ccc2c(N)c(C(=O)c3ccccc3)sc2n1 5.79%
Cc1ccc2nc(C)c3c(c2c1)N(c1ccccc1)CC3 -1.02%
Cc1nn(C)c(=O)c(N)c1-c1cc(-c2ccc(Cl)c(Cl)c2)n[nH]1 -0.481%
Cc1cc2c(NS(=O)(=O)c3ccc(F)cc3)cccc2nn1 -8.4%
COC(=O)C(=Cc1ccccc1[N+](=O)[O-])C(=O)OC -2.17%
COC(=O)c1ccc(Cn2cc([N+](=O)[O-])cn2)cc1 -7.08%
Clc1ccc(Nc2ccc(Cl)nn2)cc1 2.4%

Potency, active:
Nc1ccc2nc3c(=O)[nH]c(=S)[nH]c3nc2c1 2510 nM
COc1ccc(OC)c(-c2c3cc(O)c(=O)cc-3oc3cc(O)c(O)cc23)c1 2240 nM
